Our source for the AUC and IC50 values is the supplement of paper PMC4967469.

Holding throughout (assay): Viability of human cancer cell lines after 72 h of drug (GDSC screen)
Compound in one experiment: CC1=C(/C=C/C(C)=C/C=C/C(C)=C/C(=O)O)C(C)(C)CCC1 [Tretinoin]
Particulars: top dose 10 µM; top dose inferred. The method, then: (§1)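 Human cancer cell lines in 384-well plates, medium with 10% serum, drug for 72 h over a 256-fold dose range (nine 2-fold or five 4-fold steps up to the top dose). Adherent lines were fixed and stained with the nucleic acid dye Syto60, suspension lines read with resazurin; signal relative to control wells, capped at 0 and 100%. One two-parameter sigmoid per drug and line, fitted in a mixed model over all curves with the slope shared within a line.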

Compound in another experiment: CCn1c(-c2nonc2N)nc2c(C#CC(C)(C)O)ncc(OC[C@H]3CCCNC3)c21 [GSK690693]
The settings on record: top dose 10.24 µM; top dose inferred. The method, then: as §1

Compound in a further experiment: COc1cc2c(NC3CCN(C(C)C)CC3)nc(C3CCCCC3)nc2cc1OCCCN1CCCC1 [UNC0638]
The method, then: as §1

Compound in the next experiment: COc1ccc(N(C(=O)Oc2c(C)cccc2C)c2ccnc(Nc3ccc(N4CCN(C)CC4)cc3)n2)c(OC)c1 [WH-4-023]
The settings on record: top dose 5.12 µM; top dose inferred. The method, then:
as §1

Compound in the next experiment: Cc1cccc(-c2[nH]c(C(C)(C)C)nc2-c2ccc3c(c2)OCO3)n1 [SB-505124]
The settings on record: top dose 10 µM; top dose inferred. The procedure:
as §1

Compound in the next experiment: O=C(NCCCNc1nc(Nc2cccc(NC(=O)N3CCCC3)c2)ncc1I)c1cccs1 [BX-795]
Particulars: top dose 5 µM; top dose inferred. The method, then:
as §1

Compound in another experiment: Oc1cccc(-c2nc(N3CCOCC3)c3oc4ncccc4c3n2)c1 [PI-103]
The settings on record: top dose 10.24 µM. The procedure:
as §1

The mark [1] stands for this setting: top dose 20 µM, screen: GDSC drug entry 1236, top dose inferred.
The mark [2] stands for this setting: top dose 40 µM, screen: GDSC drug entry 245.

The IC50 comes from the fitted curve, where viability falls to half of the control; where the fit passes the top or lowest dose, that dose stands as a limit. AUC is the area under the same curve over the 256-fold range up to the top dose, as a fraction; the more sensitive the line, the further below 1. For some assays here: Where the top dose is marked as inferred, it comes from the curve model; the source does not state it. For some assays here: Drugs with an entry number were screened twice under separate entries, and the two screens often disagree. A value given as a limit tells only on which side of the number the result lay.

In the case of L-363 (myeloma, suspension), the AUC was 0.876 in the experiment with Tretinoin; 0.808 in the experiment with GSK690693; 0.724 with UNC0638 (setting [1]); 0.666 with UNC0638 (setting [2]); 0.986 with WH-4-023; 0.964 with SB-505124. The AUC with BX-795 worked out at 0.812; with PI-103, 0.28. Moreover, the IC50 was 7.67 µM with Tretinoin; 4.44 µM with GSK690693; 4.87 µM in the experiment with UNC0638 (setting [1]); 6.72 µM with UNC0638 (setting [2]); more than 5.12 µM with WH-4-023; more than 10 µM with SB-505124. The IC50 with BX-795 is 2.25 µM; with PI-103 it was 0.169 µM.

Take L-428 (Hodgkin lymphoma, suspension): the AUC with Tretinoin is 0.978; in the experiment with GSK690693, 0.993; with UNC0638 (setting [1]), 0.911; with UNC0638 (setting [2]), 0.992; with WH-4-023 it was 0.986; with SB-505124, 0.985. Further, the AUC was determined as 0.976 with BX-795 and 0.789 with PI-103. The IC50 is more than 10 µM in the experiment with Tretinoin; more than 10.2 µM with GSK690693; more than 20 µM in the experiment with UNC0638 (setting [1]); more than 40 µM in the experiment with UNC0638 (setting [2]); more than 5.12 µM in the experiment with WH-4-023; more than 10 µM with SB-505124. The IC50 in the experiment with BX-795 was more than 5 µM; in the experiment with PI-103, 3.95 µM.

Consider L-540 (Hodgkin lymphoma, suspension), for which the AUC with Tretinoin was 0.961; in the experiment with GSK690693, 0.982; with UNC0638 (setting [1]), 0.641; with UNC0638 (setting [2]) it was 0.978; in the experiment with WH-4-023, 0.919; with SB-505124 it was 0.983. Also, the AUC amounted to 0.846 with BX-795 and 0.72 with PI-103. The half-inhibitory concentration (IC50) with Tretinoin was more than 10 µM; with GSK690693, more than 10.2 µM; with UNC0638 (setting [1]), 2.93 µM; with UNC0638 (setting [2]), more than 40 µM; with WH-4-023, more than 5.12 µM; with SB-505124, more than 10 µM. Further, the IC50 with BX-795 was 3.05 µM; with PI-103 it was 2.48 µM.

Turning to L-1236 (Hodgkin lymphoma, suspension), the AUC in the experiment with Tretinoin came to 0.877; with GSK690693, 0.971; with UNC0638 (setting [1]) it was 0.871; with UNC0638 (setting [2]), 0.715; in the experiment with WH-4-023, 0.977; in the experiment with SB-505124, 0.986. Further, the AUC came to 0.699 with BX-795 and 0.814 in the experiment with PI-103. Further, the half-maximal inhibitory concentration (IC50) is 7.42 µM in the experiment with Tretinoin; more than 10.2 µM in the experiment with GSK690693; 14 µM with UNC0638 (setting [1]); 9.01 µM with UNC0638 (setting [2]); more than 5.12 µM with WH-4-023; more than 10 µM with SB-505124. For the same cell line, the half-maximal inhibitory concentration (IC50) came out at 1.02 µM in the experiment with BX-795 and 4.51 µM with PI-103.

In the case of “LAMA-84 (chronic myeloid leukaemia, suspension)”, the AUC stood at 0.793 in the experiment with Tretinoin; 0.91 with GSK690693; 0.975 with UNC0638 (setting [1]); 0.628 in the experiment with UNC0638 (setting [2]); 0.044 with WH-4-023; 0.963 with SB-505124. In addition, the values for the AUC in the experiment with BX-795 and with PI-103 were 0.693 and 0.596, respectively. Moreover, the 50% inhibitory concentration (IC50) was 4.64 µM with Tretinoin; more than 10.2 µM with GSK690693; more than 20 µM with UNC0638 (setting [1]); 5.67 µM with UNC0638 (setting [2]); less than 0.02 µM with WH-4-023; more than 10 µM in the experiment with SB-505124. Besides, the IC50 with BX-795 was found to be 1.1 µM; with PI-103 it was 1.18 µM.

Turning to LAN-6 (neuroblastoma, adherent), the AUC came out at 0.983 with Tretinoin; 0.916 with GSK690693; 0.732 with UNC0638 (setting [1]); 0.754 with UNC0638 (setting [2]); 0.959 in the experiment with WH-4-023; 0.984 with SB-505124. Also, the results for the AUC with BX-795 and with PI-103 were 0.985 and 0.877, respectively. Also, the IC50 with Tretinoin was more than 10 µM; with GSK690693, more than 10.2 µM; in the experiment with UNC0638 (setting [1]), 6.56 µM; in the experiment with UNC0638 (setting [2]) it was 15.8 µM; with WH-4-023 it was more than 5.12 µM; with SB-505124 it was more than 10 µM. The 50% inhibitory concentration (IC50) in the experiment with BX-795 was more than 5 µM; with PI-103, more than 10.2 µM.

For the cell line LB373-MEL-D (melanoma, adherent), the AUC was found to be 0.99 with Tretinoin; 0.99 with GSK690693; 0.823 with UNC0638 (setting [1]); 0.759 in the experiment with UNC0638 (setting [2]); 0.935 with WH-4-023; 0.989 with SB-505124. For the same cell line, the results for the AUC with BX-795 and with PI-103 were 0.99 and 0.971, respectively. For the same cell line, the concentration for half-maximal inhibition (IC50) is more than 10 µM with Tretinoin; more than 10.2 µM in the experiment with GSK690693; 11.5 µM with UNC0638 (setting [1]); 13.8 µM in the experiment with UNC0638 (setting [2]); more than 5.12 µM in the experiment with WH-4-023; more than 10 µM with SB-505124. Besides, the IC50 with BX-795 was more than 5 µM; with PI-103, more than 10.2 µM.

With LB771-HNC (head and neck, adherent), the AUC with Tretinoin came to 0.954; in the experiment with GSK690693, 0.946; with UNC0638 (setting [1]), 0.839; with UNC0638 (setting [2]) it was 0.859; with WH-4-023, 0.894; in the experiment with SB-505124, 0.961. The AUC in the experiment with BX-795 was determined as 0.976; with PI-103, 0.905. Further, the IC50 with Tretinoin is more than 10 µM; with GSK690693 it was more than 10.2 µM; in the experiment with UNC0638 (setting [1]), 19 µM; with UNC0638 (setting [2]), more than 40 µM; with WH-4-023, more than 5.12 µM; in the experiment with SB-505124, more than 10 µM. Moreover, the IC50 was more than 5 µM with BX-795 and more than 10.2 µM with PI-103.

What is called IC50 is the midpoint of a concentration-inhibition curve.
